{"source": "the supplement of paper PMC12632987", "binders": {"B1": {"name": "LC3A_free_46_2435 (protein)", "chain": "VVVEIDVSLLHEDKATLEAAVKELVEKAKEIAKKYGGKLEIKVEFSVDEDGNHFADIDITVEVETKEKAEQIANDLIDAIDEIAEKYGVSAIISVEIIEK"}, "B2": {"name": "LC3A_28_1171 (protein)", "chain": "SETEKNAEAALKEAKEAKEKGEPAVITITLPSGATQEEVDLVIKTMEEIAELLKDIKGSAIIVDVSSGVPQEHLDLIMDKADEIEEKYPNVSVIIALDED"}, "B3": {"name": "LC3A_17_576 (protein)", "chain": "SEEIKKLYEEALKVVEEAAKLAEKLDKEAAKKVKEILEEIKKAYKELSDLEIAKTIAEQMDKVADILDSLEDKDPEATGHLSMEADGVSIEAESLALKLE"}, "B4": {"name": "LC3A_28_893 (protein)", "chain": "SAAIKQAEAALAEAEAALAAGSTEPLVLEVKAPSTEEDAEKFLKLLEKIAEVGDKKPGVSIVIDVDSSVSQEIIDKIIDKAEELEKKYPNVTIIIALPED"}, "B5": {"name": "LC3A_3_1355 (protein)", "chain": "SEEHIAAQVARLAAAGFSPEVLEAARAAFEALAAQGHQEGIDRLTDALLANKDAPDEKLLRALANLLAELQANPNLTQEEVDALIKLVENDLEIEELEEE"}, "B6": {"name": "LC3A_free_46_2292 (protein)", "chain": "YKVEIDVDIGGLTEEQAKEFVKELKEKLKEIAKKYGVEIEVETEIEKNEDGTYSVKVNITIKAETKEIAEKVKDEVIDAIDELAEKYNASYIISYEIKEL"}, "B7": {"name": "LC3A_3_1462 (protein)", "chain": "AQELIEEARKILEEQGWSPETIAAAEALLKALAAKGYENAMKTVVELLKEMKGVSSEILLDTFKELLAIVETEDLSEEEVIKKIKEEFAAAKSENEIIEL"}, "B8": {"name": "LC3A_147_414 (protein)", "chain": "TVVEIDILVKSKEAVEKIKERMKEIVKELKAKGYKVKLEIKVEEVEPGVYLVDITIEIEAETKEDAEAAANFVLDKIDEMEEELKDEILGSLISVEIEEK"}, "B9": {"name": "LC3A_132_296 (protein)", "chain": "MKELAEKYLAELRALIAEAAANIADDAAVRAKLAEIEALIERAEKELTPEEVAEVFREVADDLDALSQQFLAAGREDLALEADGLAILAESRALRAEEAI"}, "B10": {"name": "LC3A_28_1248 (protein)", "chain": "SAIEKQLAEALAKAKAAVAAGEEVLIELTVTKDATQEDIDKIIEAMEEIAKLTASLPSTTIVINLEKGVKQENIDKLAEAAERIEEKYPNVTVILALEEE"}, "B11": {"name": "LC3A_free_39_2210 (protein)", "chain": "SEEELEKLIKEVAEEGGVDYEYVKKKIEEIQKIAGLSIEQMLEIVKKILEAVKAGADAKEILDEILKIAKELKAEGKSPEEILEAMLEKIEDFRNLVPLD"}, "B12": {"name": "LC3A_28_1080 (protein)", "chain": "SEIEKQIEEAIKEVKKAGEKGEEAVVEITVTEDATEEDIEKVIEGIKEIAELAKTSGKVSVIINLDGDIPEEHINKLADAAEEAEEANPNLTVIIALPDE"}, "B13": {"name": "LC3A_3_1475 (protein)", "chain": "LEERAKKVLERLKEAGASEEVLKAFEEAAKKLKELGHEEALKTFIEEAEELVGLPSELLLDFAEEALAAVEKYKDDEEKLIEEIKSIAAATRAEAEIEEL"}, "B14": {"name": "LC3A_59_2032 (protein)", "chain": "DEEIEEIVKKLKEAKDDIEKMAEIILEGFEEFKDDEEKLKKLKEAIIKALVESGLLSEELAKELIEEAEKIVKEEKDREKALKLIKEELKIALNEEEIEE"}, "B15": {"name": "LC3A_28_924 (protein)", "chain": "MTPEEIKKKIREIAEKAIKEGKEALIEITIDGSHSPEEVKEIMDELEREVKRLAEAGIKVYVVVDLDDVSQEVEQIVADRLDEITEKYPLVSAIIALDEE"}, "B16": {"name": "LC3A_28_733 (protein)", "chain": "SELEESIKKALEEAKKAAEKGEETVITINVPGTATEEDIEKVIKAMEEIAEITKDLKSTTIIINLDGKVPQENIDKLADHAEEIEKKYPNVTVIIALDEE"}, "B17": {"name": "LC3A_3_1702 (protein)", "chain": "SEELLEEAREIAEEQGLSEETIEAILEALKALLEKGYEEAAREFIELLKEAKDLSDETVLAFAEEVKEFVETEDANEEEVIEFIREEYRIALSDQEIEEL"}, "B18": {"name": "LC3A_28_1121 (protein)", "chain": "SSLREEWEKALEEAKKEAEEGKDVLAVFKATDDMTEEDLEFLIEKIEEAAKYLESVGQNDILVDLDMPNKPELRDRLIDGVDEIQEKYPSVNIVIALEED"}, "B19": {"name": "LC3A_28_1333 (protein)", "chain": "SHIDEELEKAREEAERQVAAGEDVVIEVEITGETTLEEAEYMMERLEEIVEEVAPKTKVSIIIDVDGEVSQEVIDLIAERADEIEKKYPNVTVIIALDEE"}}, "note": "The full ranking holds about 2,300 sequences; the median of “median log2 fold change of GCK-ALFA target abundance (FLAG IP / Myc IP barcode read proportion)” is about 0.095, and the lowest 2% start at about -0.47. The list shows a part of the results.", "data": [{"biological_target": "MAP1LC3A, Q9H492", "assay": "median log2 fold change of GCK-ALFA target abundance (FLAG IP / Myc IP barcode read proportion) (log2 ratio); each designed protein is fused to an ALFA-tag nanobody in HEK293 cells to bring the named protein to FLAG-tagged glucokinase (GCK); Myc marks an untargeted standard; higher = target protein stabilised (more abundant)", "conditions": "target protein: 3xFLAG-MCP-GCK-ALFA reporter; HEK293 landing pad (RPLP)", "how_it_was_run": "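Sequencing of reverse-transcribed, amplified circular RNA barcodes from anti-FLAG and anti-Myc immunoprecipitates provided the readout for an ALFA-nanobody-fused binder library recombined into HEK293 landing-pad cells. Those cells were induced with 2 μg mL^−1 doxycycline, transfected with a plasmid expressing a FLAG-tagged target and a Myc-tagged standard, and lysed after 48 h. Target abundance is the per-binder median log2 ratio of FLAG to Myc barcode read proportions. Only barcodes at a proportion of ≥10^−7 in both replicates and binders with ≥3 barcodes per replicate were kept, with a 10^−6 pseudocount added before the two replicates were pooled.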", "values": [{"binder": "B1", "median log2 fold change": -0.134}, {"binder": "B2", "median log2 fold change": -0.334}, {"binder": "B3", "median log2 fold change": -0.013}, {"binder": "B4", "median log2 fold change": -0.431}, {"binder": "B5", "median log2 fold change": 0.307}, {"binder": "B6", "median log2 fold change": 0.127}, {"binder": "B7", "median log2 fold change": 0.153}, {"binder": "B8", "median log2 fold change": -0.515}, {"binder": "B9", "median log2 fold change": 0.109}, {"binder": "B10", "median log2 fold change": 0.186}, {"binder": "B11", "median log2 fold change": 0.357}, {"binder": "B12", "median log2 fold change": 0.185}, {"binder": "B13", "median log2 fold change": 0.299}, {"binder": "B14", "median log2 fold change": 0.461}, {"binder": "B15", "median log2 fold change": -0.15}, {"binder": "B16", "median log2 fold change": 0.3}, {"binder": "B17", "median log2 fold change": -0.0507}, {"binder": "B18", "median log2 fold change": -0.285}, {"binder": "B19", "median log2 fold change": -0.0444}]}]}
